Experimental data: PubChem BioAssay AID1346428 (National Center for Advancing Translational Sciences (NCATS), 2018)
Out of some 48,000 compounds screened, about 1,200 (2.5%) were called active. Roughly 2% stayed inconclusive and do not appear here.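 Rule for the calls: active = activation of at least 60% and not above a set upper limit (about 1 call in 100 departs from these limits); inconclusive = activation of 40% to 60%, or above that upper limit; inactive = activation under 40%.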 The list shows a part of the results.

The molecules below were run against Probable G-protein coupled receptor 32 (Homo sapiens) (UniProt O75388) (assay: qHTS for Agonists of Human Resolvin D1 Receptor DRV1). Settings: CHO-K1 GPR32 beta-arrestin PathHunter luminescence, 90 min; at 76.9 µM; stronger effect = higher value; zero percent set by DMSO-only wells.
UniProt O75388, sequence (O75388 whole entry, looked up): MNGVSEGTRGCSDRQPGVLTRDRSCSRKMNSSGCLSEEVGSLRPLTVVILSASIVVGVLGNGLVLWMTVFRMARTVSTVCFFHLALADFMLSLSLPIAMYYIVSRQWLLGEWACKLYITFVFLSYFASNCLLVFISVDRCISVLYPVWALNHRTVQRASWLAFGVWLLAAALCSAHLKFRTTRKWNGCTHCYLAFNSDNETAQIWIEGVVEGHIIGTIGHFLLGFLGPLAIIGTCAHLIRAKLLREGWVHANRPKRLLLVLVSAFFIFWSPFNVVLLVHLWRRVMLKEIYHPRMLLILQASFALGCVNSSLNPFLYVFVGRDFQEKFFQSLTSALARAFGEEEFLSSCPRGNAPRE
Method in brief: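 Step 1: seed CHO-K1 GPR32 beta-arrestin cells, 2,500/well, overnight at 37 °C. Step 2: add compounds, 90 min at 37 °C. Step 3: detection reagent, 1 h ambient, then luminescence.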
Note: 0% is about no effect.

activation, active:
Cc1ccc(NC(=O)/C(C#N)=C/c2cc(C)n(-c3ccc(Br)cc3)c2C)cc1C 63%
Cc1nn(Cc2noc(C(=O)NCc3cccc(F)c3)n2)c(C)c1Br 73.1%

activation, inactive:
Cc1n[nH]c(C)c1S(=O)(=O)N(CC(=O)Nc1ccc(C(F)(F)F)cc1)c1ccc(C(C)C)cc1 12.4%
Cc1ccc(NC(=O)CCS(=O)(=O)c2cccc3nonc23)cc1Cl 4.66%
Cc1ccccc1Nc1c(-c2ccco2)nc2c(C)cccn12 -26.2%
CCOC(=O)c1ccc(-n2c(C)nc3c(cnn3-c3ccc(Cl)cc3)c2=O)cc1 2.33%
CCOCCCNC(=O)c1[nH]c2cc(C)ccc2c1Sc1ccc(Cl)cc1 -4.62%
Cc1cccc(NC(=O)Cn2c(=O)n(CCCS(=O)(=O)C3CCCCC3)c(=O)c3ccccc32)c1 20.9%
CCCCN(CCCC)CCNC(=O)Cn1nc(CC)n2c(cc3sc(C)cc32)c1=O -4.86%
O=S1(=O)c2ccccc2N(Cc2cccc(C(F)(F)F)c2)c2ccccc21 -58.8%
Cc1ccc(-c2onc(C)c2C)cc1S(=O)(=O)N1c2ccccc2CC1C (stereo not drawn) -15.7%
COc1ccc(C(=O)N2c3ccccc3C(C)(c3ccc(Cl)cc3)CC2(C)C)cc1 (stereo not drawn) -31.3%
COc1ccc(CCNC(=O)c2c(O)nc3c(C)cccn3c2=O)cc1 2.39%
CCOCCc1nn2c(=O)cc(COC(=O)c3ccccc3NC(=O)C3CCCCC3)nc2s1 -19.7%
CN(C)CCNC(=O)Cn1c(=O)c2cccn2c2ccc(F)cc21 -8.42%
COc1cc(OC)c(N(C)C(=O)CCNC(=O)Cn2cnc3ccccc3c2=O)cc1Cl 17.9%
O=C(NCCn1cc(SCc2ccc(Cl)cc2)c2ccccc21)c1cccs1 -13.3%
COc1cccc(-c2nc(SCC(=O)Nc3ccc4c(c3)OCCO4)c(-c3ccccc3)[nH]2)c1 -21%
CCOc1ccc(CCNC(c2cccc(Cl)c2)c2nnc(-c3ccccc3)o2)cc1OCC (stereo not drawn) -1.88%
Cc1coc2c(C)c3oc(=O)c(CCC(=O)NCCc4ccccc4)c(C)c3cc12 -16.7%
Cc1nn(C(=O)c2ccc(Br)cc2)c(C)c1S(=O)(=O)N1CCOCC1 -6.49%
CCc1ccc(-c2[nH]c3c(c2-c2sc(C)c(C(=O)OC)c2O)c(=O)[nH]c(=O)n3C)cc1 -9.78%
CCCCN(CCCC)S(=O)(=O)c1ccc2oc(C(=O)NCc3ccc(C)cc3)c(C)c2c1 -11.5%
COc1cccc(/C=C/c2nc(C#N)c(NCCc3ccc(OC)c(OC)c3)o2)c1 35.8%
COC(=O)c1ccc2c(c1)N(Cc1ccc(F)cc1)C(=O)c1ccccc1S2 -4.65%
Cn1c(NCCO)nc2c1c(=O)n(Cc1cccc(F)c1)c(=O)n2C -68.9%
CCOc1ccc(CCNC(=O)c2cnc3c(-c4ccc(F)cc4)c(C)nn3c2C)cc1OCC -19.1%
O=C(CCCN1CCN(c2ccc(F)cc2)CC1)NC1c2ccccc2CSc2ccccc21 (stereo not drawn) 39.2%
Cc1ccc(NC(=O)Cn2c(=O)n(Cc3ccco3)c(=O)c3sc4ccccc4c32)cc1C -15%
COc1ccc2c(c1)sc1ncc(C(=O)NCc3ccc(OC(C)C)cc3)c(=O)n12 -1.93%
O=C(NCCc1ccc(Cl)cc1)c1cnc2sc(N3CCCCC3)nn2c1=O -2.96%
COc1ccc(-c2cc(C(F)(F)F)nc(SCCC(=O)Nc3cc(C)ccc3O)n2)cc1 25.4%
Oc1c(C(c2ccc(Cl)cc2)N2CCC3(CC2)OCCO3)sc2nc(-c3ccco3)nn12 (stereo not drawn) 3.97%
CCOc1ccccc1NC(=O)CSc1nc2cc(OC)c(OC)cc2c2nc(-c3ccccc3)nn12 1.29%
CCn1c(=O)c(C(=O)Nc2ccc(C(C)=O)cc2)nc2ccccc21 34.7%
COc1cc(NC(=O)c2cccc3c2C(=O)N(C2CCCCC2)C3)cc(OC)c1 11.3%
O=C(Cn1c(=O)oc2ccccc21)Nc1ccc(C(=O)O)cc1 -13.2%
CCOc1ccccc1NC(=O)n1ncc2cc(Cl)ccc21 8.09%
Cc1ccc(CCNC(=O)c2ccc(CS(=O)(=O)c3ccc(Cl)cc3)o2)cc1 25.7%
COCCNC(=O)CCCN1C(=O)CCn2nc(-c3cccn3C)cc21 -22%
COc1ccc2c(c1)CCC1C2CC[C@@]2(C)C1CC[C@@H]2NCCCCCCN1C(=O)C=CC1=O (stereo partly drawn) -3.67%
COc1ccc(CCn2c(=O)[nH]c3cc(C(=O)N4CCN(c5ccccc5)CC4)ccc3c2=O)cc1OC -6.24%
CC1=C(c2ccc(C)cc2)S(=O)(=O)N(Cc2ccc(C(=O)Nc3ccccc3C)cc2)C1=O -12%
Cc1cc(O)c(C(c2ccc(Cl)cc2)N2CCN(c3ccccc3)CC2)c(=O)n1Cc1ccco1 (stereo not drawn) -21%
Cc1cc2ccccc2n1CCNC(=O)c1ccc(F)cc1 27.3%
CCN1C(=O)C2(c3ccccc31)c1c(oc3ccc(C)cc3c1=O)C(=O)N2CCCOC(C)C (stereo not drawn) -25.2%
COc1ccc(NC(=O)Cn2c(=O)oc3cc(S(=O)(=O)N4CCCCC4C)ccc32)cc1 (stereo not drawn) 22.6%
COC(=O)c1ccccc1NC(=O)CCCN1C(=O)C(c2ccccc2)Oc2cccnc21 (stereo not drawn) 8.72%
Cc1oc(-c2ccc(C(=O)NC(C)c3ccccc3)cc2)nc1CS(=O)(=O)c1ccccc1 (stereo not drawn) -0.826%
O=C(c1ccccc1F)N1CCC(c2nc3c(nnn3Cc3cccc(F)c3)c(=O)[nH]2)CC1 -0.752%
COc1cc(OC)c(NC(=O)c2cc(C(C)=O)n3ccccc23)cc1Cl 10.4%
COc1ccc(OCC(=O)N(Cc2cccc(OC)c2)C2CCS(=O)(=O)C2)cc1 (stereo not drawn) -6.92%
Cc1ccc(Nc2ncnc3c2cnn3-c2ccc(C)cc2)cc1 -3.24%
COCCNC(=O)CCCn1c(=O)[nH]c2ccsc2c1=O -26.4%
Brc1ccc(-c2noc(-c3ccccc3)n2)o1 12.8%
COc1ccc(C)cc1NS(=O)(=O)c1c(C)nc2sc(C)cn2c1=O -15.2%
CCOc1ccccc1NC(=O)CSc1ccc2nnc(CCNS(=O)(=O)c3ccccc3)n2n1 -14.6%
COc1ccc(NC(=O)c2sc3nc(C)c(C(=O)Nc4ccc(C)cc4C)c(-c4ccccc4Cl)c3c2N)cc1 -6.08%
COc1ccc(-n2cc(C(=O)N(C)c3cc(C)ccc3OC)c3ccccc3c2=O)cc1 -28.9%
CSCCC(NS(=O)(=O)c1ccc2c(c1)oc(=O)n2C)C(=O)NCc1ccc(F)cc1 (stereo not drawn) -8.78%
COc1ccccc1NC(=O)C1=C(C)Nc2nc(SCC(=O)c3ccc(C)cc3)nn2C1c1ccccc1C (stereo not drawn) 7.41%
Cc1ccc(Cl)cc1N(C)C(=O)c1noc2c1CCCCC2 -19.1%
CN(C)CCNC(=O)CCCn1c(=O)c2cccn2c2ccccc21 -0.348%
CN(C)CCN(Cc1ccccc1)S(=O)(=O)c1ccc(-c2cc(C(F)(F)F)on2)s1 19.7%
CCOc1ccc(NS(=O)(=O)c2ccc3[nH]cc(C(=O)NCCOC)c(=O)c3c2)cc1 21.8%
COc1ccc(-c2oc3ncn4nc(COc5ccc(C)cc5)nc4c3c2-c2ccc(OC)cc2)cc1 -8.76%
CCOC(=O)c1c(NC(=O)CCCOc2ccc(Cl)cc2)sc2c1CCC2 -5.34%
COc1ccc(OC)c(-c2noc(N3CCN(c4ccc(C(C)=O)cc4)CC3)n2)c1 20.7%
COc1ccc(CNC(=O)c2ccc(NC(=O)N3CCSc4ncccc43)cc2)cc1OC -8.08%
O=C(NCCc1csc2nc(-c3ccccc3F)nn12)c1ccccc1C(F)(F)F 25.9%
COc1cccc(CN(C(=O)c2ccc(C(C)(C)C)cc2)C2CCS(=O)(=O)C2)c1 (stereo not drawn) -16%
CCOC(=O)Cn1c(=O)oc2cc(S(=O)(=O)N3CCN(c4ccccc4OC)CC3)ccc21 -16.2%
COCCCNC(=O)c1ccc(Cn2c(=O)c3ccccc3n(Cc3ccccc3C)c2=O)cc1 -8.59%
CCOc1ccc(-c2nnc(SCC(=O)Nc3cc(F)ccc3F)o2)cc1 6.45%
COc1cccc2c1Oc1nc(-c3ccccc3)nc(SCC(=O)Nc3ccccc3)c1C2 2.17%
CCCOc1ccc(C(=O)Nc2ccc3nn(-c4ccc(OC)c(Cl)c4)nc3c2)cc1 7.51%
Cc1ccccc1NC(=O)c1c(C)oc2ccc(O)c(CN3CCC(C)CC3)c12 -0.284%
COc1ccc(NC(=O)c2cnn(-c3ccc(F)cc3F)c2C2CCN(C(=O)OC(C)(C)C)CC2)cc1Cl -22.7%
O=C(C1CCCN(S(=O)(=O)c2cccc3nonc23)C1)N1CCN(c2ccccc2Cl)CC1 (stereo not drawn) 1%
COc1ccc(CCNC(=O)c2ccc3nc(Cc4ccccc4)oc3c2)cc1OC 2.64%
COc1ccc(N(CC(=O)NCCc2ccccc2)S(=O)(=O)c2ccc(OC)c(OC)c2)cc1 -7.71%
Nc1nonc1-c1nc2ccccc2n1Cc1c(Cl)cccc1Cl 21.2%
O=C(CCCl)NCc1ccccc1 -15.5%
